Experiments:
[1] = molecular target: T1, recombinant human CD36 protein (SinoBiological, Cat No. 10752-H08H) (human, UniProt P16671 30-439); assay: ELISA: plate coated with 1 µg/ml recombinant CD36, test molecule at 10 µg/ml, anti-human IgG Fc-HRP, chemiluminescence (RLU)
T1 construct: Bought protein coated on the ELISA plate; also called recombinant CD36
Method: ELISA Binding Assay The 96-well plates were coated with 1 μg/ml recombinant CD36 (SinoBiological, Cat No. 10752-H08H) protein and incubated at 4° C. overnight. The next day, plate was washed three times and blocked with blocking buffer for 1 hour at 37° C. At the end of the incubation, test molecules were diluted to 10 μg/ml, and distributed into corresponding wells for incubation at 37° C. After 1 hour of incubation, wells were washed for three times. Anti-human IgG Fc-HRP 2nd Ab (Sigma-Aldrich, AP113P) was diluted in 1:5000 dilution and distributed into corresponding wells for 1 hour incubation at 37° C. At the end of the incubation, the wells were washed 3 times, then 100 ul SuperSignal ELISA Pico Chemiluminescent Substrate (ThermoFisher, Cat No. 37069) was added into the wells to detect signals. Plates were read on a plate reader after the addition of the chemiluminescent substrate. Raw Data was collected as Chemiluminescence value for each well (RLUs). Data was plotted and represented as Mean of two replicates ±SD.

[2] = molecular target: T2, CD36 on CD36 positive OCI-AML3 cells (UniProt P16671 2-472); assay: flow cytometry on OCI-AML3 cells (CD36+), anti-human Fc-APC, MFI; OCI-AML4 cells (CD36-) as negative cell line; antibody concentration not given
T2 construct: whole, on cells; Endogenous CD36 on a CD36-positive cell line, measured by flow cytometry; also called OCI-AML3 cells (CD36+)
Method: Cells were harvested and first blocked with Fc block (Biolegend, Cat No. 422302) on ice for 10 mins. The cells were then incubated with test molecules on ice for 30 mins. To detect the binding of test molecules, cells were washed once and further incubated with anti-human Fc-APC (Biolegend, Cat No. 410712) for 30 minutes incubation on ice. At the end of incubation, cells were washed and resuspended in FACS buffer with 1:100 7-AAD (BD Bioscience, Cat No. 559925) added. Data was acquired on BD Canto II flow cytometry machine. Raw data was collected as Mean Fluorescence Intensity (MFI). Data was plotted and represented as Mean of two replicates ±SD.

Binder	binding result [1]	binding result [2]
KF026 (Fc fusion, may comprise a His-tag or not) VHH-hinge-CH2-CH3 chain: QVQLQESGGGLVQPGGSLRLSCAASGLAFSTYAMSWYRQAPGKERELVALITSAGGTTDYADSVKGRFTISRDDAEKTVSLQMNSLKPEDTAVYYCSAWRATLFKPYWGQGTQVTVSS[left out - human IgG1 Fc]	binds	binds
KF023 (Fc fusion, may comprise a His-tag or not) VHH-hinge-CH2-CH3 chain: QVQLQESGGGLVQPGGSLRLSCAASGFTFSSYAMSWYRQAPGKERELVALITSAGGTTDYADSVKGRFTISRDDAEKTVSLQMNSLKPEDTAVYYCSAWRASLYEPYWGQGTQVTVSS[left out - human IgG1 Fc]	binds	binds
KF034 (Fc fusion, may comprise a His-tag or not) VHH-hinge-CH2-CH3 chain: QVQLQESGGGLVQPGGSLRLSCAASGFSFSTYAMSWYRQPPGKERELVALITTTGGTTDYADSVKGRFTISRDDAEKTVSLQMNSLKPEDTAVYYCSAWRATLLKPYWGQGTQVTVSS[left out - human IgG1 Fc]	binds	binds
KF037 (Fc fusion, may comprise a His-tag or not) VHH-hinge-CH2-CH3 chain: QVQLQESGGGLAQPGGSLRLSCAASGFTVSTYAMSWYRQAPGKERELVALITSAGGITDYADSVKGRFTIARDDAEKTVSLQMNSLKPEDTAVYYCSAWRATLFKPYWGQGTQVTVSS[left out - human IgG1 Fc]	binds	binds
KF030 (Fc fusion, may comprise a His-tag or not) VHH-hinge-CH2-CH3 chain: QVQLQESGGGLVQPGGSLRLSCAASGFRFSSSIMSWYRQAPEKERELVASISSDSVRTNYAESVKGRFTISRDNEQSTLFLEMNNLKPVDTAVYFCTRPSIRGRDWGQGTQVTVSS[left out - human IgG1 Fc]	binds	–
KF032 (Fc fusion, may comprise a His-tag or not) VHH-hinge-CH2-CH3 chain: QVQLQESGGGLVQPGGSLRLSCAASGFRFSTSIMTWYRQAPGKERELVASISSDSRRTNYAESVKGRFTISRDNEQRMVFLEMNSLKPVDTAVYFCTRPNIRGRDWGQGTQVTVSS[left out - human IgG1 Fc]	binds	–
KF033 (Fc fusion, may comprise a His-tag or not) VHH-hinge-CH2-CH3 chain: QVQLQESGGGLVQLGGSLRLSCAASGFTFSNYYMSWYRQAPGKERELVGGINMTGGSADYVDSVKGRFTISRDNTKNTVYLQMNSLRVEDTAVYYCHTFSVWPPNNYWGQGTQVTVSS[left out - human IgG1 Fc]	binds	binds
KF035 (Fc fusion, may comprise a His-tag or not) VHH-hinge-CH2-CH3 chain: QVQLQESGGGLVQPGGSLRLSCAASGRTFSSYPMGWFRQAPGKEREFVAAIDWSGDITYYADSVKGRFAISRDNAKNMVYLQMNSLKPEDTAVYYCNAGPLDSWERNDFPSWGQGTQVTVSS[left out - human IgG1 Fc]	binds	binds
KF036 (Fc fusion, may comprise a His-tag or not) VHH-hinge-CH2-CH3 chain: QVQLQESGGGLVQPGGSLRLSCAASGRTFSSYPMGWFRQAPGKEREFVAAIDWSGDITYYADSVKGRFAISRDNAKNMVYLQMNSLKPEDTAVYYCNAGPLDSWERNDFPSWDQGTQVTVSS[left out - human IgG1 Fc]	binds	binds
KF038 (Fc fusion, may comprise a His-tag or not) VHH-hinge-CH2-CH3 chain: QVQLQESGGGLVQAGGSLRLSCAASGDTICTSAMAWYRQAPGKERELVAGISSGGTVYYADSVKGRFTISRDNAKNTVYLQMNTLKPEDTAVYYCNAGPEVHDDVFRLCGPTTDYWGQGTQVTVSS[left out - human IgG1 Fc]	binds	binds
KF039 (Fc fusion, may comprise a His-tag or not) VHH-hinge-CH2-CH3 chain: QVQLQESGGGLVQPGGSLRLSCAASGFTLDYYAIGWFRQAPGKEREGIVYISNSDGNTYYADSVKGRFTISRDNAKNTVYLQMNSLKPEDTAVYYCAADQGSSVMHGFIEEWYDYWGQGTQVTVSS[left out - human IgG1 Fc]	binds	binds
KF040 (Fc fusion, may comprise a His-tag or not) VHH-hinge-CH2-CH3 chain: QVQLQESGGGLVQAGGSLRLSCAASGRTFSSYAMGWFRQAPGKEREFVAAISWSGGRTYYDDPVKGRFTISRDNAKNTVYLQMNSLKPEDTAVYYCNLDPEYSGTWNPWAGSGYWGQGTQVTVSS[left out - human IgG1 Fc]	binds	binds
KF024 (Fc fusion, may comprise a His-tag or not) VHH-hinge-CH2-CH3 chain: QVQLQESGGGLVQPGGSLRLSCAASGFTFSNYAMSWYRQTPGKERELVAAMQSTGGTTYYADSVKGRFTISRDDAKNTVYLQMNSLKPEDTAVYYCNAVTLQGWSEYDYWGQGTQVTVSS[left out - human IgG1 Fc]	binds	binds
KF029 (Fc fusion, may comprise a His-tag or not) VHH-hinge-CH2-CH3 chain: QVQLQESGGGLVQPGESLRLSCAASGFTFSNYAMSWYRQTPGKERELVAAMQSTGGTTYYADSVKGRFTISRDDAKNTVYLQMNSLKPEDTAVYYCNAVTLQGWSEYDYWGQGTQVTVSS[left out - human IgG1 Fc]	binds	binds
KF025 (Fc fusion, may comprise a His-tag or not) VHH-hinge-CH2-CH3 chain: QVQLQESGGGLVQPGGSLRLSCTASGFTFSSYAMSWYRQAPGKERELVAAIPHDGGSIYYVDSVKGRFSISRDNAKNTVYLQMNSLKPEDTAVYYCNAVTLQGWREYDYWGQGTQVTVSS[left out - human IgG1 Fc]	binds	binds
KF027 (Fc fusion, may comprise a His-tag or not) VHH-hinge-CH2-CH3 chain: QVQLQESGGGLVQPGGSLRLSCAASGFTSGFTFSSYAMSWYRQAPGKERELVAAITNAGDSTHYADSVKGRFTISRDNAKNTVYLLMNSLKPEDTAAYYCNAVTLQGWSEYDYWGQGTQVTVSS[left out - human IgG1 Fc]	binds	binds
KF028 (Fc fusion, may comprise a His-tag or not; no bar is labelled KC028 on the sheet, and the only antibody bar at the control's level is labelled KF028) VHH-hinge-CH2-CH3 chain: QVQLQESGGGLVQPGGSLRLSCAASGFSLDYFAIGWFRQAPGKEREGISCISSSGSNTYYADSVKGRFTISRDNAKNTVYLQMNSLKPEDTAVYYCAAHDYCSRAPYDYWGQGTQVTVSS[left out - human IgG1 Fc]	binds	no binding

Source: patent US20250326857A1 (KISOJI BIOTECHNOLOGY, published 2025)
